Measurements: the RNAGym collection of RNA variant scans (doi:10.7554/elife.90254)
Read counts are not given, so values of variants with three or more changes are uncertain.

B1: LINE1-full (parent)
chain: UACGUAGGUGGUUUUCCCCUGAUAGUGCUAAGGGGGCCUGGAAGUUUGGACUGGGCAGAGCUCAACACAGCGUGGCAAAGUGGCUGUGGCUAGACUGCCUCUCUGGAUUCCUCGUCACUCAGCAGGGCAUCUCUGAGAGAAAUGCC

Variants of: B1
Assay: self-cleavage, relative activity (ratio to wild type); higher = more cleavage; in vitro, sequencing; the parent is a self-cleaving ribozyme

Row | Variant | self-cleavage
1 | UACGUAGGCGGUUUUCCCCUGAUAGUGCUAAGGGGGCCUGGAAGUUUGGACUGGGCAGAGCCCAACACAGCGUGGCAAAGUGGCUGUGGCUAGACUGCCUCUCUGGGUUCCUCGUCACUCAGCGGGGCAUCUCUGAGAGGAAUGCC [U9C U62C A107G A124G A140G] | 0.4
2 | UACGUAGGCGGUUUUCCCCUGAUAGUGCUAAGGGGGCCUGGAAGUUUGGACUGGGCAGAGCUCAACACAGCGUGGCAAAGUGGCAGUGGCUAGACUGCCCCUCUGGAUUCCUCGUCACUCAGCAGGGCAUCUCUGAGAGAAAUGCC [U9C U85A U100C] | 0
3 | UACGUAGGCGGUUUUCCCCUGAUAGUGCUAAGGGGGCCUGGAAGUUUGGACUGGGCAGAGCUCAACACAGCGCGGCAAAGUGGCUGUGGCUAGACUGCCUCUCUGGAAUCCUCGUCACUCAGCAGGGCAUCUCUGAGAGAAAUGCC [U9C U73C U108A] | 2.45
4 | UACGUAGGCGGUUUUCCCCUGAUAGUGCUAAGGGGGCCUGGAAGUUCGGACUGGGCAGAGCUCAACACAGCGUGGCAAAGUGGCUGCGGCUAGACUGCCUCUCUGGAUUCCUCGUCACUUAGCAGGGCACCUCUGGGAGAAAUGCC [U9C U47C U87C C120U U130C A136G] | 0.86
5 | UACGUAGGCGGUUUUCCCCUGAUAGUGCUAAGGGGGCCUGGAAGUUUGGACAGGGCUGAGCUCAACACAGCGUGGCAAAGUGGCUGUGGCUAGACUGCCUCUCUGGAUUCCUCGUCACUCAGCAGGGCAUCUCUGAGAGAAAUGCC [U9C U52A A57U] | 0.19
6 | UACGUAGGCGGUUUUCCCCUGAUAGUGCUAAGGGGGCCUGGAAGUUUGGACUGGGCAGAGCUCAACACAGCGCGGCAAAGUGGCUGUGGCUAGACUGCCUCUCUGGAUUCCUCGUCACUCAGCAGGGCAUCUCUGAGGGAAAUGCC [U9C U73C A138G] | 1.2
7 | UACGUAGGCGGUUUUCCCCUGAUAGUGCUAAGGGGGCCUGGAAGUUUGGACUGGGCAGAGCUCAACACAGCGUGGCAAAGAGGCUGUGGCUAGACUGCCCCUCUGGAUUCCUCGUCACUCAGCAGGGCAUCUCUGAGAGAAAUGCC [U9C U81A U100C] | 1.69
8 | UACGUAGGCGGUUUUCCCCUGAUAGUGCUAAGGGGGCCUGGAAGUUUGGACUGGGCAGAGCACAACACGGCGUGGCAAAGUGGCUGUGACUAGACUGCCUCUCUGGAUUCCUCGUCACUCAGCAGGGCAUCUCUGAGAGAAAUGCC [U9C U62A A69G G89A] | 0.07
9 | UACGUAGGCGGUUUUCCCCUGAUAGUGCUAAGGGGGCCUGGAAGUUUGGACCGGGCAGAGCUCAACACAGCGUGGCAAAGUGGCUGUGGCUAGACUGCCUCCCUGGAUUCCUCGUCACUCAGCAGGGCAUCUCUGAGAGAAAUGCC [U9C U52C U102C] | 0.68
10 | UACGUAGGCGGUUUUCCCCUGAUAGUGCUAAGGGGGCCUGGAAGUUCGGACUGGGCAGAGCCCAACUCAGCGUGGCAAAGUGGCUGUGGCUAGACUGCCUCUCUGGAUUCCUCGUCACUCAGCAGGGCAUCUCUGAGAGAAAUGCC [U9C U47C U62C A67U] | 0.13
11 | UACGUAGGCGGUUUUCCCCUGAUAGUGCUAAGGGGGCCUGGAAGUUGGGACUGGGCAGAGCUCAACACAGCGUGGCAAAGUGGCUGCGGCUAGACUGCCUCUCUGGAUUCCUCGUCACUCAGCAGGACAUCACUGAGAGAAAUGCC [U9C U47G U87C G127A U132A] | 0.16
12 | UACGUAGGCGGUUUUCCCCUGAUAGUGCUAAGGGGGCCUGGAAGUUUGGACUGGGCAGAGCACAACACAGCAUGGCAAAGUGGCUGUGGCUAGACUGCCUCUCUGGAUUCCUCGUCACUCAGCAGGGCAUCUCUGAGAGAAGUGCC [U9C U62A G72A A142G] | 0.08
13 | UACGUAGGCGGUUUUCCCCUGAUAGUGCUAAGGGGGCCUGGAAGUUUGGACCGGGCAGAGCUCAACACAGCGUGGCAAAGUGGCUGUGGCUAGACUGCCUCUCUGGAUUCCUCGUCACUCAGCAGGGCAUCUCUGAGAGGAAUGCC [U9C U52C A140G] | 0.88
14 | UACGUAGGCGGUUUUCCCCUGAUAGUGCUAAGGGGGCCUGGAAGUUCGGACUGGGCAGAGCUCAACACAGCGUGGCGAAGUGGCUGUGGCUAGUCUGCCUCUCUGGAUUCCUCGUCACUCAGCAGGGCAUCUCUGAGAGAGAUGCC [U9C U47C A77G A94U A141G] | 1.38
15 | UACGUAGGCGGUUUUCCCCUGAUAGUGCUAAGGGGGCCUGGAAGUUUGGACUGGGCAGAGCUCAACACAGCGUGGCAAAGCGGCUGUGGCUAGACUACCUCUCUGGAUUCCUCGUCACUCAGCAGGGCAUCUCUGAGAGAAAUGCC [U9C U81C G97A] | 0.22
16 | UACGUAGGCGGUUUUCCCCUGAUAGUGCUAAGGGGGCCUGGAAGUUUGGACAGGGCAGAGCUCAACACAGCGAGGCAAAGUGGCUGUGGCUAGACUGCCUCUCUGGAUUCCUCGUCACUCAGCAGGGCAUCUCUGAGAGAAAUGCC [U9C U52A U73A] | 1.94
17 | UACGUAGGCGGUUUUCCCCUGAUAGUGCUAAGGGGGCCUGGAAGUUUGGACAGGGCAGAGCUCAACACAGCGUGGCAAAGUGGCUUUGGCUAGACUGCCUCUCUGGAUUCCUCGUCACUCAGCAGGGCAUCUCUGAGAGAAAUGCC [U9C U52A G86U] | 0.14
18 | UACGUAGGCGGUUUUCCCCUGAUAGUGCUAAGGGGGCCUGGAAGUUUGGACCGGGCAGAGCUCUACACUGCGUGGCAAAGUGGCUGUGGCUAGACUGCCUCUCUGGAUCCCUCGUCGCUCAGCAGGGCAUCUCUGAGAGAAAUGCC [U9C U52C A64U A69U U109C A117G] | 0
19 | UACGUAGGCGGUUUUCCCCUGAUAGUGCUAAGGGGGCCUGGAAGUUUGGACCGGGCAGAGCUCAACACAACGUGGCAAAGUGGCUGUGGCUAGACUGCCUCUCUGGAUUCCUCGUCACUCAGCAGGGCAUCUCUGAGAGAAAUGCC [U9C U52C G70A] | 0.13
20 | UACGUAGGCGGUUUUCCCCUGAUAGUGCUAAGGGGGCCUGGAAGUUUGGACUGGGCAGAGCUCAACACAGCGUGGCAAAGUGGCAGUGGCUAGUCUGCCUCUCUGGAUUCCUCGUCACUCAGCAGGGCAUCUCUGAGAGAAAUGCC [U9C U85A A94U] | 0.19
